Sequences and labels used below:
B1: PhoQ; a variant is named by its letters at X, in order, P23837 (parent)
chain: MKKLLRLFFPLSLRVRFLLATAAVVLVLSLAYGMVALIGYSVSFDKTTFRLLRGESNLFYTLAKWENNKLHVELPENIDKQSPTMTLIYDENGQLLWAQRDVPWLMKMIQPDWLKSNGFHEIEADVNDTSLLLSGDHSIQQQLQEVREDDDDAEMTHSVAVNVYPATSRMPKLTIVVVDTIPVELKSSYMVWSWFIYVLSANLLLVIPLLWVAAWWSLRPIEALAKEVRELEEHNRELLNPATTRELTSLVRNLNRLLKSERERYDKYRTTLTDLTHSLKTPLXXLQXXLRSLRSEKMSVSDAEPVMLEQISRISQQIGYYLHRASMRGGTLLSRELHPVAPLLDNLTSALNKVYQRKGVNISLDISPEISFVGEQNDFVEVMGNVLDNACKYCLEFVEISARQTDEHLYIVVEDDGPGIPLSKREVIFDRGQRVDTLRPGQGVGLAVAREITEQYEGKIVAGESMLGGARMEVIFGRQHSAPKDE

Some of the results follow.

In the assay the parent is B1. Put plainly: enrichment ratio after two sorts for PhoP signalling (ratio (wild type AVST 3.29)); higher = more functional. As to conditions: with PhoP (E. coli).
On to RTQL, for which the enrichment ratio was no more than 0.25.
The value for EFVP was no more than 0.25; that for QQPF was no more than 0.25.
Under FFVE stands no more than 0.25.
In the case of IYVE, the enrichment ratio is no more than 0.25.
Consider SEDA, for which the enrichment ratio is no more than 0.25.
On to THER, for which the enrichment ratio was no more than 0.25.
Regarding GDVF, the enrichment ratio is no more than 0.25.
Consider PIRD, for which the enrichment ratio was no more than 0.25.
Take RHKF: the enrichment ratio is no more than 0.25.
On to ESFV, for which the enrichment ratio was no more than 0.25.
As to KTQN, the enrichment ratio was no more than 0.25.
On to KHFV, for which the enrichment ratio was no more than 0.25.
FDEE: the enrichment ratio was no more than 0.25.
With RQYG, the enrichment ratio was no more than 0.25.
Regarding MQPL, the enrichment ratio was no more than 0.25.
Turning to SNAD, the enrichment ratio was no more than 0.25.
The value for YNQV was 0.278; that for AYNE was no more than 0.25.
As to RACS, the enrichment ratio was no more than 0.25.
EGMG: the enrichment ratio was no more than 0.25.
As for RNHT, the enrichment ratio was no more than 0.25.
For REFY, the enrichment ratio was no more than 0.25.
Take KGKC: the enrichment ratio was no more than 0.25.
As for CIFP, the enrichment ratio was no more than 0.25.
The value for NVIH was no more than 0.25; that for EPLN was no more than 0.25; that for RGTK was no more than 0.25.
Regarding PVRE, the enrichment ratio was no more than 0.25.
Take KGRG: the enrichment ratio is no more than 0.25.
For the variant GRVA, the enrichment ratio was no more than 0.25.
For DMCR, the enrichment ratio is no more than 0.25.
LQSS: the enrichment ratio was no more than 0.25.
Take YYKR: the enrichment ratio was no more than 0.25.
Turning to EDGR, the enrichment ratio is no more than 0.25.
Under QDWI stands no more than 0.25; under ATSN, 2.52.
For the variant LMLY, the enrichment ratio was no more than 0.25.
VEQY: the enrichment ratio was no more than 0.25.
With KLSS, the enrichment ratio is no more than 0.25.
Regarding YRSP, the enrichment ratio was no more than 0.25.
In the case of YLIR, the enrichment ratio is no more than 0.25.
Regarding YECP, the enrichment ratio is no more than 0.25.
On to KMRP, for which the enrichment ratio was no more than 0.25.
As to MWTY, the enrichment ratio was no more than 0.25.
The value for DEQP was no more than 0.25; that for GYTF was no more than 0.25.
Under WDCW stands no more than 0.25; under SELF, 13.1.
HFDY: the enrichment ratio was no more than 0.25.
Consider RYFK, for which the enrichment ratio was no more than 0.25.
The value for RSGY was no more than 0.25.
Turning to LNAG, the enrichment ratio is no more than 0.25.
With PQKD, the enrichment ratio was no more than 0.25.
The value for KYLR was no more than 0.25.
For FKVT, the enrichment ratio was no more than 0.25.
For the variant TNWH, the enrichment ratio was no more than 0.25.
For CYIS, the enrichment ratio was no more than 0.25.
With TSKE, the enrichment ratio is no more than 0.25.
Take IKPG: the enrichment ratio was no more than 0.25.
On to KFRC, for which the enrichment ratio was no more than 0.25.
HESP: the enrichment ratio is no more than 0.25.
For the variant SDIN, the enrichment ratio worked out at 0.748.
For FNDP, the enrichment ratio is no more than 0.25.
In the case of REWI, the enrichment ratio is no more than 0.25.
The value for WDER was no more than 0.25.
For RTVP, the enrichment ratio is no more than 0.25.
The value for LEYP was no more than 0.25; that for LEYH was no more than 0.25.
As for INWN, the enrichment ratio was no more than 0.25.
Under GFDS stands no more than 0.25.
Turning to WSCQ, the enrichment ratio is no more than 0.25.
Turning to TGRK, the enrichment ratio is no more than 0.25.
The value for QNPW was no more than 0.25; that for QEST was 1.97; that for DFSY was no more than 0.25.
For EAGR, the enrichment ratio was no more than 0.25.
For the variant PMPQ, the enrichment ratio was no more than 0.25.
As to MGMQ, the enrichment ratio is 7.94.
For the variant VGRK, the enrichment ratio is no more than 0.25.
Regarding LLCG, the enrichment ratio was no more than 0.25.
PSVV: the enrichment ratio was no more than 0.25.
Under YVRI stands 2.13; under SLAF, 8.18.
